Among all 310,000 compounds or so, about 14,000 (4.5%) showed an effect of 50% or more. The effect is printed as a negative number. The list shows a part of the results.

Data on 90 molecules can be found in PMC4336329 (PLoS ONE, 2015).
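Note: peak tail current of the secondary pulse compared with the same well before compound.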

The target in the assay is human ether-à-go-go-related gene (hERG) potassium channel (human, UniProt Q12809). As to the kind of experiment: primary screen, population patch clamp on CHO cells stably expressing hERG.
Sequence of human ether-à-go-go-related gene (hERG) potassium channel (Q12809 whole entry, looked up): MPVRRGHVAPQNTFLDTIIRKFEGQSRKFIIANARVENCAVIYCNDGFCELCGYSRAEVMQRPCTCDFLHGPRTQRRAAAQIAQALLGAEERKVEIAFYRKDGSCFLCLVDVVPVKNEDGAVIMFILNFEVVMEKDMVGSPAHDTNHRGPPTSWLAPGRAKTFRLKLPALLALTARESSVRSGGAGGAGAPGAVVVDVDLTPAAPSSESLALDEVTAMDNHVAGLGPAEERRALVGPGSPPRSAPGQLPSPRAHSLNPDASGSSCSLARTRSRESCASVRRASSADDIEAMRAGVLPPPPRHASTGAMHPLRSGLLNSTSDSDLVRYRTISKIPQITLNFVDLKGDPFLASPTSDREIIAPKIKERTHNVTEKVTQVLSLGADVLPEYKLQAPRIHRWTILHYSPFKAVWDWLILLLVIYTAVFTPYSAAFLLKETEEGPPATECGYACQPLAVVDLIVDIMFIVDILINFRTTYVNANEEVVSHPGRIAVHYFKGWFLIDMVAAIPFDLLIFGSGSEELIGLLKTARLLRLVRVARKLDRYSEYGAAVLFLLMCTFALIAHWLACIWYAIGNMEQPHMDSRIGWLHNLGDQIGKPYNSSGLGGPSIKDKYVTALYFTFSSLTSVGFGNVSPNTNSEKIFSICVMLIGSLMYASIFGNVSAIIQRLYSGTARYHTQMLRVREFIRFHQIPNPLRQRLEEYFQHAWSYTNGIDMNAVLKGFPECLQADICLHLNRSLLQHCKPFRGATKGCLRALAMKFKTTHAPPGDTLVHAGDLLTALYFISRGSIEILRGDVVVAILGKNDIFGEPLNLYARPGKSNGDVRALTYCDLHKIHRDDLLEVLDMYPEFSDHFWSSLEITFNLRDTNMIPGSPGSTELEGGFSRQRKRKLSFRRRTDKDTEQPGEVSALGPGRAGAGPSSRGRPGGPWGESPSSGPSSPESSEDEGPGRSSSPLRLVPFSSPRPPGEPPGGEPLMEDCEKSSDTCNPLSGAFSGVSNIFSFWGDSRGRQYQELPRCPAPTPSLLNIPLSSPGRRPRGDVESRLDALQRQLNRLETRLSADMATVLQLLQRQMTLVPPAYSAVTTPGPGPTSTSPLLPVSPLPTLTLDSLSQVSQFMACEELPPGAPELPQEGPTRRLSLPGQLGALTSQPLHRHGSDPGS
As for `O=[N+]([O-])c1cccc(CN(CCO)Cc2ccccc2)c1`, the “hERG current change (%, negative = inhibition) at 10uM” value is on record as -12.6%. With `CC1CC(=O)N(c2ccc(NCc3ccccc3Cl)c([N+](=O)[O-])c2)C1=O` (stereo not drawn) the figure was 0.813%. With `CC(CS(=O)(=O)c1ccccc1[N+](=O)[O-])N1CCOCC1` (stereo not drawn) the figure was 5.68%. With `CCn1c(CC(=O)Nc2ccc(F)cc2)nnc1SCC(=O)Nc1nncs1` the figure was -4.43%; with `Cc1cccc(NC(=O)Cn2nc(-c3cccs3)ccc2=O)c1C`, 4.16%. As to `CCCCOc1ccc(C(=O)CCN2CCOCC2)cc1.Cl`, the “hERG current change (%, negative = inhibition) at 10uM” value was -4.58%.

Take `c1ccc(OCc2nc3ccccc3s2)cc1`: the “hERG current change (%, negative = inhibition) at 10uM” value came to 2.17%. With `Cc1c(CCN)ccc2c1[nH]c1ccccc12` the figure was 0.0766%.

In the case of `O=C1N(CCCCN2C(=O)C3(OCCO3)c3ccccc32)c2ccccc2C12OCCO2`, the “hERG current change (%, negative = inhibition) at 10uM” value is listed as 6.9%. With `O=C(NNC1=NS(=O)(=O)c2ccccc21)C1CC(=O)N(c2ccccc2)C1` (stereo not drawn) the figure was 11.5%; with `CC(=O)Nc1ccc(C(=S)NCCCO)cc1`, 11.6%; with `C[C@H](NC(=O)c1ccccc1Cl)C(=O)NCc1cccs1`, 31.5%. With `Cc1ccc(OCc2nn3c(-c4ccco4)nnc3s2)cc1` the figure was -2.29%; with `CN1CCN(C(=O)CN(c2cccc(Cl)c2)S(=O)(=O)c2ccccc2)CC1`, -26%; with `O=C1C2CC=C(Cl)CC2C(=O)N1c1ncn[nH]1` (stereo not drawn), 24%.

As for `Cc1ccc(NC(=O)CSc2nnc(NC(=O)C3CC3)s2)cc1C`, the “hERG current change (%, negative = inhibition) at 10uM” value turned out to be 7.31%.

For `COc1ccc(OC)c(NC(=O)c2cc(OC(C)=O)cc(C(=O)Nc3cc(OC)ccc3OC)c2)c1`, the “hERG current change (%, negative = inhibition) at 10uM” value came out at 11.5%.

`C=CCOc1ccc2c(c1)c(=O)cc(C(=O)O)n2CC`: the “hERG current change (%, negative = inhibition) at 10uM” value turned out to be 10.3%.

Consider `CCCCCCOc1ccc(C(=O)O)cc1`, for which the “hERG current change (%, negative = inhibition) at 10uM” value is 4.98%. With `Cc1ccc(S(=O)(=O)NCCCCCC(=O)NC(C)(C)CO)cc1` the figure was 13.7%. `O=C(N/N=C/c1cccs1)c1n[nH]c2c1CCCC2`: the “hERG current change (%, negative = inhibition) at 10uM” value was 23.1%. With `O=C(/C=C/c1ccccc1Cl)c1ccccc(=O)c1O` the figure was -1.72%; with `Cc1ccc(NC(=O)CC2Oc3ccccc3NC2=O)c(C)c1` (stereo not drawn), 10.7%; with `COc1ccc(C(c2nnnn2C(C)(C)C)N2CCN(C)CC2)cc1OC` (stereo not drawn), -2.44%. With `O=C(CC1NCCNC1=O)NC1Cc2ccccc2C1` (stereo not drawn) the figure was 2.6%; with `CCOC(=O)Nc1ccc2c(c1)N(C(=O)OC)c1ccccc1CC2`, -2.44%; with `COC(=O)c1ccc(NC(C)=O)o1`, 2.44%. As for `Cc1ccc(CNC(=O)c2cc(S(=O)(=O)N3CCOCC3)cn2C)cc1`, the “hERG current change (%, negative = inhibition) at 10uM” value was -12.5%.

For the molecule `CCOC(=O)[C@H]1[C@H]2COc3ccc(Cl)cc3[C@@H]2N2C(=O)c3cc(C)ccc3NC(=O)[C@@]12C`, the “hERG current change (%, negative = inhibition) at 10uM” value came out at 5.63%.

For the molecule `O=C(c1ccco1)N1CCN(C(=S)Nc2ccc(F)cc2)CC1`, the “hERG current change (%, negative = inhibition) at 10uM” value is -2.5%. With `CC1CCCN(S(=O)(=O)c2ccc3c(c2)n(C)c(=O)c(=O)n3C)C1` (stereo not drawn) the figure was 4.51%. With `COCc1cc(C)nc(OCC(=O)N/N=C\c2cc(C)n(-c3cccc(C(F)(F)F)c3)c2C)c1C#N` the figure was 11.8%.

Turning to `Cc1cc(-c2ccccc2)c2c3c(cn2n1)c(=O)n(C)c(=O)n3C`, the “hERG current change (%, negative = inhibition) at 10uM” value is -6.82%. With `NC(=O)c1ccc[n+](CCC[n+]2cccc(C(N)=O)c2)c1.[Br-]` the figure was 14.9%. With `CN(C)S(=O)(=O)c1ccc(Cl)c(-c2nnc3n2CCCCC3)c1` the figure was -12.4%; with `CCOc1ccccc1NC(=O)c1nnn(CC(=O)Nc2cc(C)cc(C)c2)c1N`, 15.7%; with `O=C(Nc1cccc(C(=O)N2CCN(c3cccc(Cl)c3)CC2)c1)c1ccccc1`, 4.69%. Turning to `CCn1cc(C(=O)OC)c(=O)c2ccc(C)nc21`, the “hERG current change (%, negative = inhibition) at 10uM” value is on record as 22.4%.

Consider `COc1ccc(/C=N/Nc2ccccn2)cc1O`, for which the “hERG current change (%, negative = inhibition) at 10uM” value is recorded as -2.07%. With `O=C(COC(=O)C1C2CC3OC(=O)C1C3C2)Nc1ccccc1` (stereo not drawn) the figure was 12%; with `CC(C)c1c(O)nc(SCc2ccccc2)[nH]c1=O`, 11.5%; with `COn1c(=O)c(=O)n(OC)c2ccccc21`, -3.45%.

Take `COc1ccc(-c2cc(=O)n(-c3ccc([N+](=O)[O-])cc3)[nH]2)cc1`: the “hERG current change (%, negative = inhibition) at 10uM” value was found to be 16.8%. With `Cc1ccc(S(=O)(=O)CCC(=O)N2CCN(c3ccc(Cl)cc3)CC2)cc1` the figure was -23.8%; with `O=C(Nc1ccc2ccccc2c1)c1cc(F)c(F)cc1Cl`, 17.5%; with `O=C(CSc1cccs1)Nc1ccc2ccccc2c1`, 4.71%. With `O=c1c2sccc2nc(SCc2ccc([N+](=O)[O-])cc2)n1Cc1ccccn1` the figure was -61.6%. `Cc1ccccc1Nc1nccc(N(C)C)c1C#N`: the “hERG current change (%, negative = inhibition) at 10uM” value stood at 11.1%. With `CCCc1cc(-c2n[nH]c(C)c2-c2ccc(C(=O)OCC)o2)c(O)cc1O` the figure was -0.34%; with `Cc1ccc(-c2cc(O)cc3sc(=O)oc23)cc1C`, 12.1%.

As to `CC(O)[C@@H](C(=O)N1CCNCC1)n1cc(CCCCN)nn1.Cl` (stereo partly drawn), the “hERG current change (%, negative = inhibition) at 10uM” value is reported as 14.3%. With `Cc1onc(-c2ccccc2)c1C(N)=O` the figure was 3.15%; with `Cc1ccnc2nc(C(=O)Nc3nc(-c4ccccn4)cs3)nn12`, 8.69%; with `Nc1ccccc1N1CCN(C(=O)c2ccccc2)CC1`, 6.81%. With `COC(=O)c1cc2ccc(OC)c(OC)c2c(=O)s1` the figure was 18.6%.

Turning to `Cc1ccc(C(=O)N2CCC(N3CCC(C(=O)N4CCOCC4)CC3)CC2)cc1C`, the “hERG current change (%, negative = inhibition) at 10uM” value is -16.6%. With `O=C(CCCC(=O)c1ccccc1)NCc1ccccc1` the figure was 14%; with `COCCN(C(=O)Nc1ccc(OC)cc1)c1nc2ccccc2s1`, 22.7%.

For the molecule `CCOc1cc(-c2noc(N)c2C(=O)OC)cc(OCC)c1OCC`, the “hERG current change (%, negative = inhibition) at 10uM” value was -0.749%. For the molecule `Cc1cc(C)c(NC(=O)/C=C\C(=O)O)c([N+](=O)[O-])c1`, the “hERG current change (%, negative = inhibition) at 10uM” value was -6.23%. With `Cc1ccc(C)n1-n1cnc2scc(-c3cccs3)c2c1=O` the figure was -9.66%; with `O=C(Cn1cc([N+](=O)[O-])cn1)Nc1ccn(Cc2c(F)c(F)cc(F)c2F)n1`, -11.7%.

For the molecule `COc1ccc(NC(=S)Nc2ccc(N(C)C(C)=O)cc2)cc1`, the “hERG current change (%, negative = inhibition) at 10uM” value came out at 4.86%. With `COc1cc(C(=O)Nn2c(C)nc3ccccc3c2=O)cc(OC)c1OC` the figure was 12.8%; with `O=C1CC(c2ccco2)Cc2nc(N3CCN(Cc4ccc5c(c4)OCO5)CC3)ncc21` (stereo not drawn), -33.1%. As for `CN(Cc1ccccc1)C(=O)CCS(=O)(=O)c1ccc2c(c1)oc(=O)n2C`, the “hERG current change (%, negative = inhibition) at 10uM” value was found to be 3.61%. With `COc1ccc(OCCNC(=O)CSc2ccc(C(F)(F)F)cc2[N+](=O)[O-])cc1` the figure was -12.4%; with `Cc1ccccc1OCC(O)Cn1c(NCCN(C)C)nc2c1c(=O)n(C)c(=O)n2C` (stereo not drawn), -20.3%; with `Cc1c(C(=O)OCC(=O)NCCN2C(=O)CSC2=O)oc2c1ccc1ccccc12`, -7.84%.

As for `CC1CCN(S(=O)(=O)c2cccc(C(=O)Nc3nncs3)c2)CC1`, the “hERG current change (%, negative = inhibition) at 10uM” value is -7.49%.

Consider `O=C(CNC(=O)c1ccc2ccccc2c1)NCc1ccc(F)cc1`, for which the “hERG current change (%, negative = inhibition) at 10uM” value was found to be 8.64%. With `COc1ccccc1CNCc1ccc(OC)c(OC)c1OC.O=C(O)C(=O)O` the figure was -8%; with `CCCNC(=O)NC(=O)CSc1ccc2c(c1)OCCO2`, 11.4%.

With `O=C1c2ccc(Oc3ccc4c(c3)C(=O)N(CCCO)C4=O)cc2C(=O)N1CCCO`, the “hERG current change (%, negative = inhibition) at 10uM” value is reported as -1.78%. In the case of `CCNc1nc(NCC)nc(N/N=C/c2ccc(OC)cc2)n1`, the “hERG current change (%, negative = inhibition) at 10uM” value amounted to 6.24%.

Consider `COCCCNC(=O)CNC(=O)c1nn(-c2ccc(OC)cc2)c(=O)c2ccccc12`, for which the “hERG current change (%, negative = inhibition) at 10uM” value stood at 11.1%.

On to `COc1ccc(OC)c(N(CC(=O)N2CCN(Cc3ccccc3)CC2)S(C)(=O)=O)c1`, for which the “hERG current change (%, negative = inhibition) at 10uM” value is 5.68%.

For the molecule `COc1cccc(C2C(C(=O)c3cc4ccccc4o3)=C(O)C(=O)N2CCN(C)C)c1OC` (stereo not drawn), the “hERG current change (%, negative = inhibition) at 10uM” value is reported as 0.215%.

`COc1ccc(NC(=O)C2CCCN(S(=O)(=O)c3ccc4c(c3)CCCN4C(C)=O)C2)cc1` (stereo not drawn): the “hERG current change (%, negative = inhibition) at 10uM” value was 9.31%. Consider `COc1cc(/C=N/NS(=O)(=O)c2ccccc2)c(OC)c(OC)c1`, for which the “hERG current change (%, negative = inhibition) at 10uM” value is 16.7%.

For `COc1cccc(NC(=O)CSc2nnc(-c3cccc(OC(C)C)c3)n2N)c1`, the “hERG current change (%, negative = inhibition) at 10uM” value was determined as 13.5%. Turning to `O=C(O)CSc1c2c(nc3cc(C(=O)Nc4ccc(F)c(Cl)c4)ccc13)CCCC2`, the “hERG current change (%, negative = inhibition) at 10uM” value is reported as 6.45%. With `Cc1cc(Cl)c2oc(C(=O)N(C)Cc3cc(C)[nH]n3)c(C)c2c1` the figure was 0.344%; with `COc1ccc(Nc2ncnc3sc(-c4ccccc4)cc23)cc1`, -31.6%. With `O=C(CCn1c(=O)oc2ccccc21)N1CCN(C(c2ccccc2)c2ccccc2)CC1` the figure was -14.6%; with `C/C(=N\Nc1ccc(C#N)cc1[N+](=O)[O-])c1ccc(O)cc1`, -0.692%.

As for `CN1C(=O)NC(c2ccccc2)C2=C1CN(CCc1ccccc1)C2=O` (stereo not drawn), the “hERG current change (%, negative = inhibition) at 10uM” value is recorded as -0.00352%. With `Clc1ccccc1Cc1noc(CN2CCN(c3cnccn3)CC2)n1` the figure was -14.8%; with `CCc1nnc(NC(=O)c2cc(-c3ccc(C)o3)nc3ccccc23)s1`, -15.3%. For the molecule `Cc1ccnc(NC(=O)c2cc(-c3ccc(Cl)s3)nc3ccccc23)c1`, the “hERG current change (%, negative = inhibition) at 10uM” value was determined as 4.31%.
